Measured values taken from PubChem BioAssay AID504706 (National Center for Advancing Translational Sciences (NCATS), 2011).
The whole screen tested about 320,000 compounds, of which about 200 (0.062%) were called active. The inconclusive results got no clear call from the source; some entries with a clear call stand among them for comparison. Calls come from the whole dose curve; as a rule, active = well fitted activation curve with a large enough effect; inconclusive = small, poorly fitted or top-dose-only effect; inactive = no such curve, though single readings can be large or run the other way. No potency is given beside an inconclusive call; the fits are too rough.
Potency is the fitted concentration of half-maximal effect; tags give direction and shape of the fitted curve.

Assay: qHTS assay for re-activators of p53 using a Luc reporter; note: nearly all actives have a fitted effect of over 45% in size; for activity change, positive = activation: % of control where 0% means no effect
Details: H1299 p53-A138V BP100-luciferase reporter, luminescence, 24 h; series mostly up to 92.2 µM; activity change, positive = activation: at the top concentration
Outline: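 H1299 (p53-null), stable ts p53-A138V + BP100-Luc; 1000 cells/well, Opti-MEM/10% FBS; cpd 4 pt, 1:5; 24 h, 37 deg C, 5% CO2; detection reagent 10 min RT; luminescence.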
In the case of Oc1ccc(-c2nnc(-c3ccc(O)cc3)nn2)cc1, the Potency is reported as inconclusive [activator, full curve, poor fit]. With O=C(CSc1ccc(Cl)cc1)Nc1ccccc1N1CCN(C(=O)c2ccc(Cl)cc2)CC1 the Potency was inconclusive [activator, single point]. In the case of Cc1cc(NC(=O)CSc2nc(-c3ccccc3)cs2)no1, the Potency is reported as inconclusive [activator, single point]. For CC(C)OC(=O)CSc1nc2c(cc1C#N)CCCCC2, the “activity change, positive = activation” value was inactive: 3.78%. With COC(=O)c1ccccc1NC(=O)CSc1nnc(-c2ccc(C)cc2)o1 the Potency was inconclusive [activator, partial curve, poor fit]. In the case of COc1ccc2c(c1)c(/C=N/Nc1ccc(C(=O)O)cc1)c(C)n2C, the “activity change, positive = activation” value is reported as inactive: 13.1%. For COc1ccc(NC(=O)CSc2ccccc2)c(OC)c1, the Potency was inconclusive [activator, partial curve, poor fit]. In the case of CCCCCCSc1ccc(-c2nc3ccc(Cl)cn3c2NCCCC)cc1OC, the Potency is reported as inconclusive [activator, partial curve, poor fit]. In the case of O=C(Nc1ccc(CN2CCOCC2)cc1)c1ccc(Br)o1, the “activity change, positive = activation” value is reported as inactive: 9.07%. For Cn1nnc2cc(NC(=O)Nc3cccc(Cl)c3)ccc21, the “activity change, positive = activation” value was inactive: 1.95%. In the case of Cc1ccsc1/C=N/NC(=O)CO, the “activity change, positive = activation” value is reported as inactive: -1.29%. With CC1CCCCC12NC(=O)N(CC(=O)NC(=O)Nc1ccc3c(c1)OCCO3)C2=O (stereo unspecified) the “activity change, positive = activation” value was inactive: 23.7%. In the case of C/C(NC(=O)c1ccccc1F)=C1\C(=O)C[C@@H]2[C@H]1C2(C)C, the Potency is reported as active: 12.6 µM. With CN(CC(=O)Nc1ccccc1Cl)C(=O)c1cccc(S(=O)(=O)N2CCN(c3ccc(F)cc3)CC2)c1 the Potency was inconclusive [activator, partial curve, poor fit]. With O=C(NCCc1ccc(Cl)cc1)c1cc(-c2ccncc2)nc2ccccc12 the “activity change, positive = activation” value was inactive: 1.12%. For Nc1ccc(C(=O)N/N=C/c2cn(Cc3cccc(F)c3)c3ccccc23)cc1, the “activity change, positive = activation” value was inactive: -13.3%. In the case of CCc1ccc2c(c1)C(=O)c1ccccc1C2=O, the Potency is reported as inconclusive [activator, partial curve, poor fit]. With O=C(Nc1ccc(N2CCOCC2)c(Cl)c1)c1cc2ccccc2o1 the Potency was inconclusive [activator, partial curve, poor fit]. In the case of Clc1ccc(OCc2nc(-c3ccncc3)no2)c(Cl)c1, the Potency is reported as inconclusive [activator, partial curve, poor fit]. With O=C(NC(=S)Nc1cccnc1Cl)c1ccc(Cl)cc1 the Potency was inconclusive [activator, full curve, poor fit]. For S=C(c1ccc(-c2ccccc2Cl)o1)N1CCCCC1, the Potency was inconclusive [activator, full curve, poor fit]. In the case of O=C(COC(=O)/C=C/c1ccco1)Nc1ccccc1, the “activity change, positive = activation” value is reported as inactive: 4.33%. For C=CCNc1nc(-c2ccc(O)c(C(N)=O)c2)cs1, the Potency was inconclusive [activator, single point]. With CN(C(=O)COC(=O)c1cccnc1Cl)C1CCCCC1 the Potency was inconclusive [activator, full curve, poor fit]. In the case of FC(F)(F)c1ccccc1N/N=C/c1cccnc1, the “activity change, positive = activation” value is reported as inactive: 5.09%. With O=C(COc1ccc(Cl)cc1)Nc1ccc(CN2CCOCC2)cc1 the “activity change, positive = activation” value was inactive: -4.12%. With COc1ccc([C@H](NC(=O)OC(C)(C)C)C(=O)OC(C)(C)C)cc1 the Potency was inconclusive [activator, full curve, poor fit]. With O=[N+]([O-])c1ccc(N=Cc2ccc(Br)c([N+](=O)[O-])c2)cc1 the Potency was inconclusive [activator, single point]. With Cc1ccccc1NC(=O)/C=C/c1cccc(C(F)(F)F)c1 the Potency was inconclusive [activator, partial curve, poor fit]. With CN(C)c1oc(-c2ccc(OCc3ccccc3)cc2)nc1C#N the Potency was inconclusive [activator, full curve, poor fit]. With CCOC(=O)C(NCc1ccccc1OC)(NC(C)=O)C(F)(F)F (stereo unspecified) the Potency was inconclusive [activator, single point]. For C=CCOc1ccc(/C(O)=C2\C(=O)C(=O)N(CCN(C)C)C2c2cccs2)cc1 (stereo unspecified), the Potency was inconclusive [activator, single point]. In the case of C/C(=N\OC(=O)c1ccc(Cl)cc1)c1sc(-c2ccccc2)nc1C, the Potency is reported as inconclusive [activator, partial curve, poor fit]. With COc1ccc(NC(=S)Nc2ccccn2)c(OC)c1 the Potency was inconclusive [activator, full curve, poor fit]. For O=C(Nc1ccc2c(c1)OCO2)C1CC(=O)N(c2ccc3c(c2)OCCO3)C1 (stereo unspecified), the “activity change, positive = activation” value was inactive: -4.7%. For COc1ccc([C@H]2CC(=O)C=C(c3ccc4ccn(C)c4c3)C2)cc1, the Potency was inconclusive [activator, full curve, poor fit]. In the case of CCOc1ccc(NC(=S)NC(C)C(c2ccccc2)N2CCN(C)CC2)cc1 (stereo unspecified), the Potency is reported as inconclusive [activator, full curve, poor fit]. For O=C(CCCN1C(=O)c2cccc3cccc(c23)C1=O)N1CCN(c2ccccc2)CC1, the “activity change, positive = activation” value was inactive: -4.06%. For CC1=NNC(=O)C1CCC(=O)N/N=C/C(Br)=C/c1ccccc1 (stereo unspecified), the Potency was inconclusive [activator, partial curve, poor fit]. With Cc1cc2cc(CCNC(=O)c3cccs3)c(=O)[nH]c2cc1C the Potency was inconclusive [activator, partial curve, poor fit]. With COc1ccc(-n2ncc3c(N4CCCCC4)ncnc32)cc1 the “activity change, positive = activation” value was inactive: -23.5%. For c1ccc(-c2ccc(CN3CCSCC3)cc2)cc1, the Potency was inconclusive [activator, single point]. In the case of COc1ccccc1CC(=O)Nc1ccc2nc(C)sc2c1, the Potency is reported as inconclusive [activator, partial curve, poor fit]. For CCCCc1c(C)c(C#N)c2nc3ccccc3n2c1Cl, the Potency was inconclusive [activator, full curve, poor fit]. With O=C(Nc1ccc(Cl)cn1)c1cccc(S(=O)(=O)N2CCOCC2)c1 the Potency was inconclusive [activator, partial curve, poor fit]. In the case of COc1ccc(NC(=O)c2ccc(-c3ccc(C(C)=O)cc3)o2)cn1, the Potency is reported as inconclusive [activator, single point]. With Cc1ccc(C)c(OCc2cc(C(=O)N3CCc4sccc4C3)no2)c1 the Potency was inconclusive [activator, single point]. In the case of CCOC(=O)CCNC(=O)N1CCCC(CNS(=O)(=O)Cc2ccccc2)C1 (stereo unspecified), the “activity change, positive = activation” value is reported as inactive: -0.0167%. In the case of CCn1c(SCC(=O)Nc2ccc(OC)c(OC)c2)nnc1-c1cccs1, the “activity change, positive = activation” value is reported as inactive: -5.27%. For COc1cccc(CNc2ncc(Br)cc2Br)c1O, the Potency was inconclusive [activator, partial curve, poor fit]. With COc1ccc(C(=O)c2coc3ccc(OC(C)=O)cc23)cc1 the Potency was inconclusive [activator, full curve, poor fit]. With Clc1cccc(OCc2nc(-c3ccncc3)n[nH]2)c1 the “activity change, positive = activation” value was inactive: -6.1%. With O=c1[nH]c(Cc2ccccn2)nc2scc(-c3ccc(Cl)cc3)c12 the “activity change, positive = activation” value was inactive: 3.79%. With COc1ccc(C(=O)COc2ccccc2C(N)=O)cc1 the “activity change, positive = activation” value was inactive: 2.94%. For Cc1cc(NC(=O)c2ccco2)ncc1NC(=O)Cc1ccccc1, the Potency was inconclusive [activator, single point]. For Oc1ccccc1N=Nc1ccccc1O, the Potency was inconclusive [activator, partial curve, poor fit]. For Cc1ccc(-c2cc3nc(C)cc(C)n3n2)cc1, the Potency was inconclusive [activator, full curve, poor fit]. With O=C(Nc1ccncc1)c1ccc2c(c1)OCCO2 the Potency was inconclusive [activator, single point]. With O=C(c1ccco1)c1cc2c(ccc3ccccc32)oc1=O the Potency was inconclusive [activator, single point]. In the case of Cc1cc(C(=O)N/N=C/c2cc([N+](=O)[O-])ccc2O)c2ccccc2n1, the Potency is reported as inconclusive [activator, single point]. For CC1CCc2c(sc(/N=C/N(C)C)c2C#N)C1 (stereo unspecified), the “activity change, positive = activation” value was inactive: 15.6%. With CC(C)(C)C1CCC(C(=O)Nc2nccs2)CC1 (stereo unspecified) the Potency was inconclusive [activator, single point]. In the case of Cc1cccc(C(=O)OCC(=O)NC(=O)c2ccccc2)c1O, the “activity change, positive = activation” value is reported as inactive: -4.12%. For O=C(NC(=S)NNC(=O)c1ccccc1[N+](=O)[O-])c1ccccc1, the Potency was inconclusive [activator, single point]. In the case of COc1ccc(C(=O)/C=C/C(=O)N(CC(=O)NC2CCCCC2)Cc2ccccc2)c(O)c1, the “activity change, positive = activation” value is reported as inactive: -11.3%. In the case of CC(C)c1ccc(CC(NC(=O)c2ccccc2)C(=O)NCC(=O)O)cc1 (stereo unspecified), the “activity change, positive = activation” value is reported as inactive: 0.718%. In the case of Cc1cccc(NC(=S)NNC(=O)c2ccc3c(c2)OCO3)c1, the Potency is reported as inconclusive [activator, partial curve, poor fit]. In the case of Cc1cc(Cl)c2oc(C(=O)N3CCN(C(=O)c4ccco4)CC3)c(C)c2c1, the Potency is reported as inconclusive [activator, partial curve, poor fit]. With Cc1ccccc1Nc1nc(Nc2ccccc2C)nc(SC2=NCCS2)n1 the “activity change, positive = activation” value was inactive: 18.4%. In the case of Cc1cccc(NC(=O)c2ccc(N(C)C3CCCCC3)c([N+](=O)[O-])c2)n1, the “activity change, positive = activation” value is reported as inactive: 11.1%. With COc1ccccc1NC(CC(=O)c1ccccc1)C(=O)OCC(=O)c1ccc(C)cc1 (stereo unspecified) the Potency was inconclusive [activator, full curve, poor fit].
